# Data from ChEMBL document CHEMBL1961873, “Compounds: GSK PKIS; Assays: Nanosyn kinase panel” (2012).
# For some of these results: This list holds what a sample rich in strong results left over. The list shows a part of the results, in another mix than the full data.
# What was measured:
# [1] = biological target: Tyrosine-protein kinase Fyn (Homo sapiens) (UniProt P06241); details: at 1 µM
# [2] = biological target: Tyrosine-protein kinase HCK (Homo sapiens) (UniProt P08631); details: at 0.1 µM
# Chain of UniProt P08631 (P08631 whole entry, looked up): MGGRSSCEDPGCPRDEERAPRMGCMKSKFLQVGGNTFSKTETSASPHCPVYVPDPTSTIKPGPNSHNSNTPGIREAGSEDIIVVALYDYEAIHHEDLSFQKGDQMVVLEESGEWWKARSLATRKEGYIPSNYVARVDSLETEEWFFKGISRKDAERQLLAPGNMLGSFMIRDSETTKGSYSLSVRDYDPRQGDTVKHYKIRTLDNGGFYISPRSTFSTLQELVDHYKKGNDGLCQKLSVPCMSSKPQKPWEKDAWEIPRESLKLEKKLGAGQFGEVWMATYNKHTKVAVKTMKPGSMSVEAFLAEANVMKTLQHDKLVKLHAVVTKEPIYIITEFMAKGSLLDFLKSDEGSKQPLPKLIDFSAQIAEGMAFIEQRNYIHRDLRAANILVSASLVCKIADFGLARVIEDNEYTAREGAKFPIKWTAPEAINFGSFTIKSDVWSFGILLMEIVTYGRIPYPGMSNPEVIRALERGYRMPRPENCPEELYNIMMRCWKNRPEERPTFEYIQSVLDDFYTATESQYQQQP
# [3] = biological target: Tyrosine-protein kinase HCK (Homo sapiens) (UniProt P08631); details: at 1 µM
# [4] = biological target: Insulin-like growth factor 1 receptor (Homo sapiens) (UniProt P08069); details: at 0.1 µM
# Chain of UniProt P08069 (P08069 whole entry, looked up): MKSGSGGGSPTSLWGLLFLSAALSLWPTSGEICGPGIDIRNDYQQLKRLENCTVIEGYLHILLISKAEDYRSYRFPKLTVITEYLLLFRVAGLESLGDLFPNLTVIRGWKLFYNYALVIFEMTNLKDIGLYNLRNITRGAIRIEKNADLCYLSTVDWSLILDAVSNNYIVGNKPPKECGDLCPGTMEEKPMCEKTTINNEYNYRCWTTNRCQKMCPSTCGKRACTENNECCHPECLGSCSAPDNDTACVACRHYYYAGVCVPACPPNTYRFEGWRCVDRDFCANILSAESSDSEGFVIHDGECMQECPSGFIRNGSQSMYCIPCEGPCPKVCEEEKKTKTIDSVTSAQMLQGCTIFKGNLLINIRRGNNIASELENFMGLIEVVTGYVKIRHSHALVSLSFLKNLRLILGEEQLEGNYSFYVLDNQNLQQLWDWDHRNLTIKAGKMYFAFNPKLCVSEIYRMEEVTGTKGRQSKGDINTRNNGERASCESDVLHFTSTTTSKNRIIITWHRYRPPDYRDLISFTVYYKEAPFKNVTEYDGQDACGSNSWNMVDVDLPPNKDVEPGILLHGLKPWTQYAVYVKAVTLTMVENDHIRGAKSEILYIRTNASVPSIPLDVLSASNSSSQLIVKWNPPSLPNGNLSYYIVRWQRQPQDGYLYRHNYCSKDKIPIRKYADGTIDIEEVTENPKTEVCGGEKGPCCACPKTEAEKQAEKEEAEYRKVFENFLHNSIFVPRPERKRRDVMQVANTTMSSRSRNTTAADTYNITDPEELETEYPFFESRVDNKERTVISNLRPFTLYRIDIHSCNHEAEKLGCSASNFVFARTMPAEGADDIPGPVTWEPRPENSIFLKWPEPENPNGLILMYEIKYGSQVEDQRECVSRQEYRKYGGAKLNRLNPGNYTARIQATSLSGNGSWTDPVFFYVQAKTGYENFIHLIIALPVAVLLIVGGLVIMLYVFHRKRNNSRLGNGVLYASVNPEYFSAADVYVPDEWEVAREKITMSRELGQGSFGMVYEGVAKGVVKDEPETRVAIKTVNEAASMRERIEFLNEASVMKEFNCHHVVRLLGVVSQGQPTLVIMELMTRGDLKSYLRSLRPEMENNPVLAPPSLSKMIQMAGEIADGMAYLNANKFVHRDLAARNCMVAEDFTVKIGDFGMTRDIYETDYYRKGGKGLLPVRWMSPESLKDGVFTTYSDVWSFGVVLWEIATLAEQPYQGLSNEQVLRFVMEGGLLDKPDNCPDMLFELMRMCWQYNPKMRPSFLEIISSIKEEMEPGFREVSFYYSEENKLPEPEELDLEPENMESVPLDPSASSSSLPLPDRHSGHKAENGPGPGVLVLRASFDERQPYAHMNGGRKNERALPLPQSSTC
# [5] = biological target: Insulin-like growth factor 1 receptor (Homo sapiens) (UniProt P08069); details: at 1 µM
# [6] = biological target: Insulin receptor (Homo sapiens) (UniProt P06213); details: at 0.1 µM
# Chain of UniProt P06213 (P06213 whole entry): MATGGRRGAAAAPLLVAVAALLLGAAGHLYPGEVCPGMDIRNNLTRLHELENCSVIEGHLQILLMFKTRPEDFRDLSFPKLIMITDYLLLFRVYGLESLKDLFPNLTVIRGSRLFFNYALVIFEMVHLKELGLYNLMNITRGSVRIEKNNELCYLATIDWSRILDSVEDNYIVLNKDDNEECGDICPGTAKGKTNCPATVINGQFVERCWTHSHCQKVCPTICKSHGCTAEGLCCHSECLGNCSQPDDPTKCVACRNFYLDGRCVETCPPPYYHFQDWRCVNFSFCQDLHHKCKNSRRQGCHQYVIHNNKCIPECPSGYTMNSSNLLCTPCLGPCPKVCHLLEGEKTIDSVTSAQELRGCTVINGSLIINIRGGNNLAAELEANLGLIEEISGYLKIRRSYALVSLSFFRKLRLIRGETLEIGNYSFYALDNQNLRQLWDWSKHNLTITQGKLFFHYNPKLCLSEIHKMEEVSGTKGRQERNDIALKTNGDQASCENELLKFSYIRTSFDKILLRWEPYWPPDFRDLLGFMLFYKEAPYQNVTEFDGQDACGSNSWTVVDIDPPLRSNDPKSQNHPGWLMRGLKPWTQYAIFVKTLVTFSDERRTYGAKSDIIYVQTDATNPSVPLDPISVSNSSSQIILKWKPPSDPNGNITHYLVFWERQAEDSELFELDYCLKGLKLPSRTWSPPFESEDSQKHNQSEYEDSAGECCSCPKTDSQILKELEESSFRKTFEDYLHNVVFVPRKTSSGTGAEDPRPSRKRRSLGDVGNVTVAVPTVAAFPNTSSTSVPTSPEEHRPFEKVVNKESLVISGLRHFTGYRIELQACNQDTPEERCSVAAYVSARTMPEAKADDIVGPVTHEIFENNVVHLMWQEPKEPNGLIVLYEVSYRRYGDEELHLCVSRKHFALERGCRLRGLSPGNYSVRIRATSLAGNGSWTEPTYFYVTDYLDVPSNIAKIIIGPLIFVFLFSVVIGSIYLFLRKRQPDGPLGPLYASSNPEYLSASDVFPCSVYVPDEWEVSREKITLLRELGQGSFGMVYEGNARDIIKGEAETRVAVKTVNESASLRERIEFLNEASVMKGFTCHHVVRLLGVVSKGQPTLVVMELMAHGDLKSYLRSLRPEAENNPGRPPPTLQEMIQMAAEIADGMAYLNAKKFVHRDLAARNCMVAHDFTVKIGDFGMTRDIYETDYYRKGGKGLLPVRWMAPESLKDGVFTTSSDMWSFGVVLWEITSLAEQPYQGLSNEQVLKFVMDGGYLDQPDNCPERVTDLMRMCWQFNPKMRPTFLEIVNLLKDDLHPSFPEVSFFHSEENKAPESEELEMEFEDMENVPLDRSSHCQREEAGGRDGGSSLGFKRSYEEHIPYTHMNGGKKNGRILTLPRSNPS
# [7] = biological target: Insulin receptor (Homo sapiens) (UniProt P06213); details: at 1 µM
# [8] = biological target: Insulin receptor-related protein (Homo sapiens) (UniProt P14616); details: at 0.1 µM
# [9] = biological target: Insulin receptor-related protein (Homo sapiens) (UniProt P14616); details: at 1 µM
# [10] = biological target: T1, Tyrosine-protein kinase ITK/TSK (Homo sapiens) (UniProt Q08881); details: at 0.1 µM
# T1 sequence (whole entry): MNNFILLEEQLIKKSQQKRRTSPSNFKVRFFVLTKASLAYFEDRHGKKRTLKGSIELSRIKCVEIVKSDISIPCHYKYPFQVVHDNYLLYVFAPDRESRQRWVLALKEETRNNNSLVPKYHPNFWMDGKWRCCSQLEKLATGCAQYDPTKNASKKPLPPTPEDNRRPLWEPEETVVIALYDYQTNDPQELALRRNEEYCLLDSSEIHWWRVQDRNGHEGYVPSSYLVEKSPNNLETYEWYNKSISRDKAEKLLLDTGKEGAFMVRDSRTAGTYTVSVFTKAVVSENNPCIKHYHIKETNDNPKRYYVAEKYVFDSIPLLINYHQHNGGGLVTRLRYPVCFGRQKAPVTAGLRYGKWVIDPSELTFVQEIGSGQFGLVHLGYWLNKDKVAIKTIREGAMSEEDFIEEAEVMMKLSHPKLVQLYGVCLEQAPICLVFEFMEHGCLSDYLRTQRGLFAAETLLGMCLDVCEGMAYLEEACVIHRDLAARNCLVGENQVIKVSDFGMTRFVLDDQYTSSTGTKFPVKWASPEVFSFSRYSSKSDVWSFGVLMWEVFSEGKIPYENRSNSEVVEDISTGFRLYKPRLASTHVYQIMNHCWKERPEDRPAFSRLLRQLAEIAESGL
# [11] = biological target: T1, Tyrosine-protein kinase ITK/TSK (Homo sapiens); details: at 1 µM
# [12] = biological target: Tyrosine-protein kinase JAK1 (Homo sapiens) (UniProt P23458); details: at 0.1 µM
# [13] = biological target: Tyrosine-protein kinase JAK1 (Homo sapiens) (UniProt P23458); details: at 1 µM
# [14] = biological target: Tyrosine-protein kinase JAK2 (Homo sapiens) (UniProt O60674); details: at 0.1 µM
# [15] = biological target: Tyrosine-protein kinase JAK2 (Homo sapiens) (UniProt O60674); details: at 1 µM
# [16] = biological target: T2, Tyrosine-protein kinase JAK3 (Homo sapiens) (UniProt P52333); details: at 0.1 µM
# T2 sequence (whole entry): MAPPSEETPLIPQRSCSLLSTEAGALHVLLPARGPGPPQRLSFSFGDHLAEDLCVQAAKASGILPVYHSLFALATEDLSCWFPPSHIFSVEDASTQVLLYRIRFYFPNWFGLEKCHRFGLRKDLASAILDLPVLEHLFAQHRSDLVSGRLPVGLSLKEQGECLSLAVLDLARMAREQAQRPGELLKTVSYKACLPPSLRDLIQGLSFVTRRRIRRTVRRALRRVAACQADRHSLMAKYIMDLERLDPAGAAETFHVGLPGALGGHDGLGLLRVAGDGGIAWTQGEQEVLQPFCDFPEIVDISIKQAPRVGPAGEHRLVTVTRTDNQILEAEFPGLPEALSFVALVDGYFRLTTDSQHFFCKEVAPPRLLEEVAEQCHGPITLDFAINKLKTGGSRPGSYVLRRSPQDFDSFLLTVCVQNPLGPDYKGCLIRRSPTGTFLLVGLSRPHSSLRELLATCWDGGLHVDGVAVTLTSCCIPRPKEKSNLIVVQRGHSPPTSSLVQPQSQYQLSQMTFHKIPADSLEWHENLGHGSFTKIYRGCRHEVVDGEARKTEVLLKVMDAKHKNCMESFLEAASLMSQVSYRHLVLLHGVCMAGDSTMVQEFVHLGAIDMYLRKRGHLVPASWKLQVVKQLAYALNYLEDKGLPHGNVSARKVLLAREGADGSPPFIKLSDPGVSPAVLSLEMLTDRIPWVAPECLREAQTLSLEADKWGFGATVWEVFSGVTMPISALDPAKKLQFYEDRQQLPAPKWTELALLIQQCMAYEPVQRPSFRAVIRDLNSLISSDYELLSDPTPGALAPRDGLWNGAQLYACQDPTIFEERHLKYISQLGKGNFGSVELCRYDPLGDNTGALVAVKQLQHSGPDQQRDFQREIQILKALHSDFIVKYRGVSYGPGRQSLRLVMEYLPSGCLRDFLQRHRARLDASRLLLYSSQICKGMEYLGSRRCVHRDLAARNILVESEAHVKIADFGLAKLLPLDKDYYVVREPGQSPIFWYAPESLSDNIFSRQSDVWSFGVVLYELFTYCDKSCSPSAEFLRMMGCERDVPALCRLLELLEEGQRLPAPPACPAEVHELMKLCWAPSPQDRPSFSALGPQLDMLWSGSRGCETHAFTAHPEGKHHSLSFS
# [17] = biological target: T2, Tyrosine-protein kinase JAK3 (Homo sapiens); details: at 1 µM
# [18] = biological target: Vascular endothelial growth factor receptor 2 (Homo sapiens) (UniProt P35968); details: at 0.1 µM
# [19] = biological target: Vascular endothelial growth factor receptor 2 (Homo sapiens) (UniProt P35968); details: at 1 µM
# [20] = biological target: Mast/stem cell growth factor receptor Kit (Homo sapiens) (UniProt P10721); details: at 0.1 µM;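 further: values are mean inhibition of KIT, from the GSK PKIS dataset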
# Chain of UniProt P10721 (P10721 whole entry): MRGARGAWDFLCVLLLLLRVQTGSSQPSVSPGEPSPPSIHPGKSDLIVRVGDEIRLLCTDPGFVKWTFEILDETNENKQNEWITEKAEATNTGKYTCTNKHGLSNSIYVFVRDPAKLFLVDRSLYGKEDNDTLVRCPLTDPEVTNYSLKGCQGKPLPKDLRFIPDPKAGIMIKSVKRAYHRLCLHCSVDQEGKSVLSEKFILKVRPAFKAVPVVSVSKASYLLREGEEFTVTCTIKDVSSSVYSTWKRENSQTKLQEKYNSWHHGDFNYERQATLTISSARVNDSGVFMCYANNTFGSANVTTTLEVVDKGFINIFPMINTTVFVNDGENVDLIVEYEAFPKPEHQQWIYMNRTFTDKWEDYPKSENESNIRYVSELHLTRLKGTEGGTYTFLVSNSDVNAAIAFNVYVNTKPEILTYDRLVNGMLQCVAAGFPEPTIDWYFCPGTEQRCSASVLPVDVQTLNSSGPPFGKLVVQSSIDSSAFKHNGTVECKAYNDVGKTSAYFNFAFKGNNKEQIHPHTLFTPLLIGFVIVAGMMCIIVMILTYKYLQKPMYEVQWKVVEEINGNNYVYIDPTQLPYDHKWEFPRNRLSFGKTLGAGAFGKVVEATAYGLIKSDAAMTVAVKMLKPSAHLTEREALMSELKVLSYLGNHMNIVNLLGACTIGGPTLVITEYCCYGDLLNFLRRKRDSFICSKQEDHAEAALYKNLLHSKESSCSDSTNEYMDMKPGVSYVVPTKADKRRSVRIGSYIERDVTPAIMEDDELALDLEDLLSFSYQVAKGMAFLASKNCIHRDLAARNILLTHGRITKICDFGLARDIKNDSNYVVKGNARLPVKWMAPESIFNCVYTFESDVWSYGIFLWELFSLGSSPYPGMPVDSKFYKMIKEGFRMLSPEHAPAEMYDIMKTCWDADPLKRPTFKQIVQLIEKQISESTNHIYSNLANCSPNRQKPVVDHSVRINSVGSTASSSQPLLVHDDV
# Chain of UniProt P06241 (P06241 whole entry, looked up): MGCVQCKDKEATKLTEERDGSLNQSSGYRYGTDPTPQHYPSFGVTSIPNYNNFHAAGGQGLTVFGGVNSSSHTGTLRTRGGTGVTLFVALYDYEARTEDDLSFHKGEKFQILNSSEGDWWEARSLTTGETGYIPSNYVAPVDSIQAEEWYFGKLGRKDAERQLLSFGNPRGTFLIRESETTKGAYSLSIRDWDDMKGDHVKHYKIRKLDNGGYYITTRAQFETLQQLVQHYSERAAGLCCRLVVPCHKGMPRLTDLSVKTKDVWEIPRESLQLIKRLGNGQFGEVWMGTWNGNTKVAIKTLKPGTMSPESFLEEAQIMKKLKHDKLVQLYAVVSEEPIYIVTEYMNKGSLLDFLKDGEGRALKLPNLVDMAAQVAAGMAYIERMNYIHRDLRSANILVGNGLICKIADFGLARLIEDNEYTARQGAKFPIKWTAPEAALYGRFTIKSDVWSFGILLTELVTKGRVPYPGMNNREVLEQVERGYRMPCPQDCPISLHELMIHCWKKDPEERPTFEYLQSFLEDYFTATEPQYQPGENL
smiles,measurement,setting,value
O=C(O)c1ccc(Oc2nccc(-c3c(-c4ccc(F)cc4)ncn3C3CCNCC3)n2)cc1,inhibition,[1],-1.45%
same,inhibition,[2],7.45%
same,inhibition,[3],9.14%
same,inhibition,[4],19.6%
same,inhibition,[5],13.4%
same,inhibition,[6],7.59%
same,inhibition,[7],4.59%
same,inhibition,[8],1.17%
same,inhibition,[9],4.7%
same,inhibition,[10],2.79%
same,inhibition,[11],1.53%
same,inhibition,[12],1.98%
same,inhibition,[13],2.33%
same,inhibition,[14],3.17%
same,inhibition,[15],3.34%
same,inhibition,[16],0.39%
same,inhibition,[17],-1.13%
same,inhibition,[18],3.05%
same,inhibition,[19],9%
same,inhibition,[20],1.57%
COc1ccccc1Oc1nccc(-c2c(-c3ccc(F)cc3)ncn2C2CCNCC2)n1,inhibition,[1],3.33%
same,inhibition,[3],7.51%
same,inhibition,[4],-0.76%
same,inhibition,[5],0.06%
same,inhibition,[6],4.99%
same,inhibition,[7],3.4%
same,inhibition,[8],2.3%
same,inhibition,[9],3.66%
same,inhibition,[10],1.35%
same,inhibition,[11],3.06%
same,inhibition,[12],3.67%
same,inhibition,[13],6.54%
same,inhibition,[14],0.87%
same,inhibition,[15],1.24%
same,inhibition,[16],-1.33%
same,inhibition,[17],4.46%
same,inhibition,[18],6.68%
same,inhibition,[19],9.89%
same,inhibition,[20],5.27%
O=C1NC(=O)C(c2cccc([N+](=O)[O-])c2)=C1Nc1cc(Cl)c(O)c(Cl)c1,inhibition,[1],0.6%
same,inhibition,[2],2.54%
same,inhibition,[3],0.75%
same,inhibition,[4],-4.01%
same,inhibition,[5],-0.5%
same,inhibition,[6],3.24%
same,inhibition,[7],1.56%
same,inhibition,[8],-0.61%
same,inhibition,[9],0.1%
same,inhibition,[10],-1.3%
same,inhibition,[11],0.8%
same,inhibition,[12],0.71%
same,inhibition,[13],4.63%
same,inhibition,[14],0.39%
same,inhibition,[15],-0.7%
same,inhibition,[16],-2.64%
same,inhibition,[17],24.5%
same,inhibition,[18],1.21%
same,inhibition,[19],8.59%
same,inhibition,[20],0.51%
CS(=O)(=O)c1ccc(Oc2nccc(-c3c(-c4ccc(F)cc4)ncn3C3CCNCC3)n2)cc1,inhibition,[1],2.24%
same,inhibition,[2],5.46%
same,inhibition,[3],4.56%
same,inhibition,[4],-0.62%
same,inhibition,[5],1.08%
same,inhibition,[6],1.11%
same,inhibition,[7],4.54%
same,inhibition,[8],2.47%
same,inhibition,[9],2.71%
same,inhibition,[10],-0.93%
same,inhibition,[11],0.88%
same,inhibition,[12],2.94%
same,inhibition,[13],4.57%
same,inhibition,[14],1.37%
same,inhibition,[15],0.12%
same,inhibition,[16],-3.03%
same,inhibition,[17],-2.29%
same,inhibition,[18],0.99%
same,inhibition,[19],3.33%
same,inhibition,[20],7.07%
